Experimental data taken from PubChem BioAssay AID1963576 (National Center for Advancing Translational Sciences (NCATS), 2024).
In all, about 46,000 compounds went through this assay and about 60 (0.1%) were called active. Another 3% or so got no clear call; they are omitted. Calls come from the whole dose curve; as a rule, active = well fitted inhibition curve with a large enough effect; inconclusive = small, poorly fitted or top-dose-only effect; inactive = no such curve, though single readings can be large or run the other way. Some of the results follow.

Assay: Primary qHTS assay for Inhibitors of ovarian cancer metastasis using an organotypic tumor microenvironment (TME) model.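 For activity change, negative = inhibition: plate controls were DMSO wells for no effect and tomatine positive control wells for full effect.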 Note: nearly all actives have a fitted effect of over 65% in size.
Conditions: SKOV3ip1-GFP adhesion/invasion on 3D omental model, fluorescence; series mostly up to 45.8 µM; activity change, negative = inhibition: at the top concentration
Summary of the method: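 Primary human omental fibroblast/mesothelial 3D culture pre-formed 48 h. SKOV3ip1-GFP cells added with compounds (0.36-46 umol/L), incubated 2 h RT/16 h 37 C, fixed; GFP cells quantified at 488/509 nm.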

outcome, inactive:
CC(=O)c1ccc(NS(=O)(=O)c2ccc(Br)s2)cc1
Cn1ccc2c(OCC(=O)Nc3ccc(OC(F)(F)F)cc3)cccc2c1=O
COc1cc(Cl)c(C)cc1NC(=O)c1cc2c(=O)oc3ccccc3c2s1
CCOc1ccc(C(=O)OCc2cc(=O)n3nc(C4CC4)sc3n2)cc1
Cc1cc(C(=O)N2CCN(c3cccc(Cl)c3)CC2)c2c(C)nn(-c3ccccc3Cl)c2n1
CCOCCCNC(=O)c1cn(CC)c2ccc(S(=O)(=O)N3CCOCC3)cc2c1=O
CCOc1ccc(NC(=O)N(Cc2cn(CC)c3ccccc23)C2CCCCCC2)cc1
O=C(CSc1nc2c([nH]c3ccccc32)c(=O)n1-c1cccc(Cl)c1)c1ccccc1
COc1ccc(NC(=O)c2ncn(-c3ccccc3)n2)cc1Cl
CCCCn1cc(S(=O)(=O)c2ccc(OC)cc2)c(=O)c2cc(F)c(N3CCOCC3)cc21
COc1ccc(CCNC(=O)CCc2c(C)nc3c4cccnc4nn3c2C)cc1OC
CCc1ccccc1NC(=O)CSc1ncc2c(n1)-c1cc(Cl)ccc1N(Cc1ccccc1)S2(=O)=O
COc1cccc(N2CCN(C3=NS(=O)(=O)C(c4ccc(C)cc4)=C3C)CC2)c1
COc1ccccc1NC(=O)N1CCN(Cc2nc3ccc(C)cc3o2)CC1
CCc1ccc(NC(=O)c2sc(-n3nc(C)c(Cc4ccc5c(c4)OCO5)c3C)nc2C)cc1
CCN(C(=O)Cn1cc(S(=O)(=O)N2CCN(c3ccccc3F)CC2)c2ccccc2c1=O)c1ccc(C)c(C)c1
COc1cccc(CNC(=O)C2CCN(Cc3cc4ccccc4n3Cc3ccccc3)CC2)c1OC
Cc1ccc(NC(=O)CSc2nc3ccccc3nc2Cc2ccccc2)c(Cl)c1
O=C(COc1ccc(Cl)cc1)Nc1ccc2nc(SCC(=O)N3CCOCC3)sc2c1
COc1ccc(S(=O)(=O)Nc2cc(-c3cn4ccc(C)cc4n3)ccc2C)cc1OC
CC(C)(C)c1ccc(S(=O)(=O)c2cnc(SCC(=O)Nc3ccc4c(c3)OCCO4)[nH]c2=O)cc1
CCN(CC)C(=O)CSc1nc2cc3c(cc2c(=O)n1CCCC(=O)NCc1ccc2c(c1)OCO2)OCO3
COc1ccc2nc(SCC(O)c3cccc(Br)c3)[nH]c2c1 (centres undefined)
CCOc1ccc(NC(=O)c2cn(C3CCCCC3)c(=O)c3c2c2ccccc2n3C)cc1
CCOc1ccc(CNC(=O)CCCn2c(=O)c3cccn3c3ccccc32)cc1

Activity change, negative = inhibition, inactive:
COc1cc2nc(SCC(=O)Nc3ccccc3C)n3nc(CCn4c(C)nc5ccccc54)nc3c2cc1OC 1.43%
CC(C)(C)C1CCc2c(sc(NC(=O)c3ccco3)c2C(=O)Nc2ccccc2Cl)C1 (centres undefined) -1.43%
CCn1cc(C(=O)N2CCN(c3cc(Cl)ccc3C)CC2)c(=O)c2cc(S(=O)(=O)N3CCCC3)ccc21 1.73%
COc1ccc(CNC(=O)C2=CC(c3ccc(OC)c(OC)c3)=NS(=O)(=O)N2C)cc1 2.94%
CCOC(=O)c1ccc(N2CCN(c3ccccc3OC)CC2)c(NC(=O)Nc2ccc(CC)cc2)c1 -4.87%
Cc1cccc2sc(N(Cc3cccnc3)C(=O)CCOc3ccccc3)nc12 2.66%
CCOC(=O)CSc1nc2ccc(NC(=O)COc3ccc(F)cc3)cc2s1 -0.75%
CN(C)c1ccc(C(CNC(=O)c2ccccc2Cl)N2CCCC2)cc1 (centres undefined) 6.05%
Cc1cc(C)c(NC(=O)C2CCN(S(=O)(=O)c3c(C)noc3/C=C/c3ccccc3F)CC2)c(C)c1 -4.76%
COc1ccc(S(=O)(=O)c2c(Nc3ccc(C)cc3C)sc(C(=O)c3ccc(F)cc3)c2N)cc1 -5.63%
COc1ccc(N2CCN(CCCNC(=O)c3cnn(-c4ccc(C)cc4)c3-n3cccc3)CC2)cc1 -17.5%
O=C(NCc1ccccc1)C(=O)NCC(c1cccs1)S(=O)(=O)c1cccs1 (centres undefined) -22.4%
CN1C(=O)Cc2cc(S(=O)(=O)NCc3ccc(Cl)cc3)ccc21 9.94%
Cc1nnsc1C(=O)Oc1ccc(Cl)cc1 -0.772%
CCc1ccc(-n2nc(C)c3c(C)cc(=O)n(CC(=O)Nc4cc(C)ccc4C)c32)cc1 -27.8%
Cc1c(C(=O)OCC2CCCCC2)[nH]c2c1C(=O)CC(c1ccccc1Cl)C2 (centres undefined) 2.75%
Cc1cc(C)cc(C(=O)NCCc2csc(-c3ccc(C(F)(F)F)cc3)n2)c1 3.09%
CCc1ccccc1S(=O)(=O)Cc1ccc(C(=O)NCCc2ccc(C)cc2)o1 8.46%
CCC(Sc1nnc2c(n1)[nH]c1ccccc12)C(=O)Nc1ccccc1OC (centres undefined) 13.7%
Cc1ccc(Cn2c(=O)n(CCCCC(=O)NCc3ccc4c(c3)OCO4)c(=O)c3ccccc32)cc1 -2.15%
Cn1cc(S(=O)(=O)N2CCCC2)cc1C(=O)N1CCN(c2cccc(Cl)c2)CC1 -6.27%
Cc1cc(C)c(NC(=O)Cn2c(=O)n(CC3CCCO3)c(=O)c3ccccc32)c(C)c1 (centres undefined) 19.4%
Cc1cnc(Nc2ccc(CN3CCOCC3)cc2)nc1Nc1cccc(S(=O)(=O)NC(C)(C)C)c1 -23.5%
Cc1cc2c(cc1NS(=O)(=O)c1ccc(NC(=O)CC(C)C)cc1)n(C)c(=O)c(=O)n2C -3.74%
CC(=O)Nc1c(C)nn(-c2ccccc2)c1N1CCC(C(=O)Nc2cc(F)ccc2F)CC1 -9.2%
Cc1ccc(N2C(=O)c3n[nH]c(C)c3C2c2ccccc2Cl)cc1 (centres undefined) -3.83%
Cc1cc(C)cc(NS(=O)(=O)c2c(C)nc3scc(C)n3c2=O)c1 5.5%
CCOC(=O)c1cc(C)n(CC2CCC(C(=O)Nc3ccc(OC)c(OC)c3)CC2)c1C (centres undefined) 5.2%
Cc1ccc2oc(C(=O)Nc3ccc(S(=O)(=O)N4CCCCCC4)cc3)cc(=O)c2c1 9.53%
COc1ccccc1NC(=O)Cn1nc2c3cc(F)ccc3n(Cc3cccc(C)c3)cc-2c1=O -10.8%
CC(C)Cn1cnc2c(N)nc3ccccc3c21 47.4%
O=C(Oc1ccccc1F)c1nc(SCc2ccccc2F)ncc1Cl 3.45%
CCOc1ccccc1NC(=O)Cn1c(=O)n(-c2ccc(C)c(C)c2)c(=O)c2oc3ccccc3c21 1.88%
CC(=O)N1CCCc2cc(S(=O)(=O)NCc3ccccc3Cl)ccc21 0.0919%
COc1ccc(Nc2ncc3c(n2)CCN(Cc2cccc(F)c2F)C3)c(OC)c1 -10.3%
CCN1CCC(N(Cc2ccc3c(c2)OCO3)C(=O)Nc2cccc(C)c2C)CC1 12.2%
O=C(Nc1ccccc1C(F)(F)F)c1noc2c1CCCC2 -4.17%
Oc1c(C(c2ccccc2Cl)N2CCC(O)CC2)sc2nc(-c3ccco3)nn12 (centres undefined) -1.76%
Cc1ccc(S(=O)(=O)c2nnn3c2nc(N2CCCC(C)C2)c2cc(Cl)ccc23)cc1C (centres undefined) 8.36%
CCc1ccc(Nc2nc3c(S(=O)(=O)c4ccc(C)cc4)nnn3c3ccsc23)cc1 -8.87%
Cc1ccc(C)c(NC(=O)c2cc(S(=O)(=O)N3CCN(c4cccc(Cl)c4)CC3)ccc2F)c1 1.19%
CCN(Cc1ccccc1)C(=O)C1CCC(CNS(=O)(=O)c2ccc3c(c2)CCCC(=O)N3)CC1 (centres undefined) 27%
Cc1ccc(-n2ncc(C(=O)NCc3ccccn3)c2C2CCN(C(=O)OC(C)(C)C)CC2)cc1C -0.0316%
Cc1ccc(Cl)cc1NC(=O)c1nnn(Cc2ccccc2)c1N -3.12%
CCn1ccc2cc(S(=O)(=O)N3CCC(C(=O)NCC(C)c4ccccc4)CC3)ccc21 (centres undefined) 0.987%
Cc1nnc2c3ccccc3nc(Nc3ccccc3C(=O)O)n12 -13.8%
Cc1ccc(NCc2cc3cc4c(cc3n(CC(=O)Nc3ccc(F)cc3F)c2=O)OCCO4)cc1 18.2%
CCOc1ccc(S(=O)(=O)NCc2ccc3c(c2)CCN3C(=O)c2ccc(C)cc2)cc1 3.96%
O=C(Nc1ccc(C(F)(F)F)cc1)c1cc(S(=O)(=O)N2CCCc3ccccc32)ccc1F 6.74%
Cc1ccc(CN2c3ccccc3-c3nc(SCC(=O)NCCc4ccccc4)ncc3S2(=O)=O)cc1 -9.54%
O=C(CN1C(=O)C2(SCC(=O)N2c2cccc(F)c2)c2ccccc21)NCc1ccccc1Cl (centres undefined) 1.31%
Clc1ccc(CN2CCc3nc(N4CCN(c5ccccn5)CC4)ncc3C2)cc1 0.731%
O=C(/C=C/c1ccccc1)Nc1nc2n(n1)C(c1ccc(Cl)cc1)C=C(c1ccccc1)N2 (centres undefined) 0.902%
Cc1nnsc1C(=O)Oc1ccc(C#N)cc1 3.31%
CCOC(=O)c1ccc(Oc2nc(C)nc3c2oc2ccccc23)cc1 -4.15%
CC(C)CC(=O)NCC(c1ccc2c(c1)OCO2)N1CCN(c2ccc(F)cc2)CC1 (centres undefined) -18.8%
CCOC(=O)c1cc(-c2ccccc2)n(CCCC(=O)Nc2cccc(C)c2)c1C -3.91%
CCc1nc2ccccc2n1CCCCOc1cccc(C)c1 12.7%
CCCOc1ccc(NC(=O)CC2C(=O)N(c3ccc(OC)cc3)C(=O)N2CCc2ccncc2)cc1 (centres undefined) -4.99%
Cc1nn(-c2ccc(N3CCCCC3)nn2)c(C)c1CCC(=O)NCc1ccccc1 -5.58%
COc1ccc(-c2cn3c(n2)sc2cc(C(=O)NCCCc4ccccc4)ccc23)cc1 5.58%
O=C(Cn1nc(N2CCN(c3ccccc3)CC2)ccc1=O)NCc1ccccc1F -2.73%
CCCS(=O)(=O)c1nc(S(=O)(=O)c2ccc(C)cc2)c(NCCCOC(C)C)s1 11.5%
COc1cccc2c1cc1c(=O)n(CC(=O)N3CCN(c4ccc(F)cc4)CC3)nc(C)n12 -3.45%
CCOc1ccc(C(=O)N(Cc2nc(-c3cccc(C)c3)no2)C(C)C)cc1 -24%
Cn1c(=O)c2c(nc(NCCc3ccccc3)n2Cc2ccccc2Br)n(C)c1=O -1.32%
Cc1ccc(-c2nnc(SCC(=O)NC(C)(C)C)nc2-c2ccc(C)cc2)cc1 -20%
Cc1cccc(C(=O)Nc2ccccc2OCc2cc(=O)n3ccccc3n2)c1 -1.94%
CC(C)(C)c1cc(C(=O)O)c(NC(=O)Nc2ccc3[nH]ncc3c2)s1 -1.78%
